The values that follow come from ChEMBL document CHEMBL1201862, “PubChem BioAssay data set” (2004).

SMILES strings stand for the structures.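 Dose response: 5 concentrations. Exposure: 48 h. Format: 96-well plates. Endpoint: linear interpolation; highest concentration if not reached. GI50: concentration for 50% inhibition of growth.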 Active and inactive are the calls of the source. Cut-off read from the data, not from the text of the source: active = GI50 up to about 1.1 µM and inactive = higher. A value given as a limit tells only on which side of the number the result lay.

The test system of the assay is NCI-H322M. In words: NCI tumour cell line growth inhibition, 48 h.
In the case of `NC(=O)NC(CC(=O)O)C(=O)O` (stereo not given), the GI50 was inactive: > 100 µM.
Next, `O=C1Nc2ccc(Br)cc2C1=Nc1cccnc1`: inactive: 33.3 µM.
For `O=C(O)CC1(C(=O)O)CCCCC1` the value was inactive: > 100 µM; for `COC(=O)c1ccc(NCc2cc(O)ccc2O)cc1`, inactive: 21.3 µM.
For `CSc1ccc(/C=C/c2ccnc3ccccc23)cc1` the value was inactive: 18.2 µM; for `Cc1ccccc1NC(=O)c1cc2cc(/N=N/c3ccccc3C(=O)O)ccc2oc1=O`, inactive: 14.9 µM.
Turning to `Cc1ccc(NC(=O)CCC(=O)C2CC(=O)CCC2=O)cc1C` (stereo not given), the GI50 was inactive: > 100 µM.
Take `O=C1CC(=O)NC(NNS(=O)(=O)c2ccc(Cl)cc2)=N1`: the GI50 is inactive: > 100 µM.
Consider `COc1cc2c(c(OC)c1OC)C(=O)NCCC2`, for which the GI50 was inactive: > 100 µM.
`CC(C)=CC(=O)OC1C2C(C)=CC(=O)C(O)C2(C)C2C3(O)OCC24C(CC(=O)OC14)C(C)C3O` (stereo not given): the GI50 was active: 0.169 µM.
For `CS(=O)(=O)N1CC(CCl)c2ccc(NO)cc21` (stereo not given) the value was inactive: 26.2 µM.
Regarding `CC1=NN(c2nc(N)nc(/C(C#N)=C\c3csc([N+](=O)[O-])c3)n2)C(C)(C)C1`, the GI50 was inactive: 34.2 µM.
For `CC(C)CC1[C@@H](OCc2ccccc2)COS(=O)N1Cc1ccccc1` (stereo not given in full), the GI50 is inactive: 91.6 µM.
For `CCOC(=O)N[C@H]1CCc2cc(O)c(OC)c(OC)c2-c2ccc(SC)c(=O)cc21` the value was active: 0.0207 µM; for `Cc1cc2c(cc1Cl)Sc1nnc(C)n1S2(=O)=O`, inactive: 15.1 µM.
Next, `COP(C)(=O)C1=CCN(C(=O)OCC[Si](C)(C)C)CC1` (stereo not given): inactive: > 100 µM.
Next, `O=C1N[C@@H]2c3c(Br)sc(Br)c3C(=O)[C@@H]2N1`: inactive: 7.55 µM; `CCOP(=O)(CN1CCNCCN(CP(=O)(OCC)OCC)CC1)OCC`: inactive: > 100 µM; `C[C@]12CCC3c4ccc(O)cc4CC[C@H]3C1CC(=O)NC2=O` (stereo not given in full): inactive: > 10 µM.
For `CCCCC1C=Cn2c(=O)oc3c(OC(C)C)c(C)c(O)c1c32` (stereo not given), the GI50 was inactive: 2.59 µM.
Next, `CC(=O)c1c(SCCN2CCOCC2)n(-c2ccccc2)c(=S)n(-c2ccccc2)c1=O`: inactive: 36.8 µM; `CC(C)(C)C(=O)C(C#N)C(=O)C(C)(C)C`: inactive: > 100 µM; `O=c1o[nH]/c(=N/c2ccccc2)n1-c1ccccc1`: inactive: > 100 µM.
Next, `CC(C)(C)[C@H]1CO[C@]2(c3ccccc3)[C@@H]3C[C@@H]3C(=O)N12`: inactive: > 100 µM; `CN(C)CCCN1c2ccccc2CCc2cc([N+](=O)[O-])ccc21`: inactive: 25 µM.
As for `COCOc1ccc(C(=O)Oc2cccc3c2OC(C)(C)O3)c(OCOC)c1`, the GI50 is inactive: > 100 µM.
With `OC12COc3ccccc3C1Oc1ccccc1C2` (stereo not given), the GI50 was inactive: > 100 µM.
Next, `C[C@]12CC[C@H](O)CC1=CC[C@@H]1C2CC[C@]2(C)c3n[nH]nc3CC12` (stereo not given in full): inactive: > 100 µM.
For `CC(SCc1ccccc1)C(=O)O` (stereo not given) the value was inactive: > 100 µM; for `COc1cc(/C=C2\N=C(c3ccccc3)N(c3nc4ccc(Sc5ccccc5)cc4[nH]3)C2=O)cc(OC)c1OC`, inactive: 38.1 µM.
Next, `COC(=O)c1sc2c(c1C(=O)OC)/C(=N/C(C)(C)C)S/C2=N\C(C)(C)C`: inactive: 23.8 µM; `CC1=C(C)CC2C(=O)N(c3cc(C(C)(C)C)ccc3C(C)(C)C)C(=O)C2C1` (stereo not given): inactive: > 100 µM.
With `CN1NC(c2ccccc2)=C(C#N)C(=O)CC1c1ccc(F)cc1` (stereo not given), the GI50 was inactive: > 100 µM.
Next, `O=c1nc(Oc2c(F)c(F)c(F)c(F)c2F)ccn1C1OC(CO)C(O)C1O` (stereo not given): inactive: > 100 µM; `Cc1cc([N+](=O)[O-])ccc1Sc1c2ccccc2nc2cc(Cl)ccc12`: inactive: > 100 µM.
For `COc1cc2[nH]c(=O)c3cc(C)cc4c(Cl)nc(c1OC)c2c43` the value was inactive: 27.5 µM; for `COc1ccc(C2=Nc3ccccc3SC(C)C2)cc1` (stereo not given), inactive: > 100 µM.
Regarding `OC1C#CCSCC#C/C=C\1` (stereo not given), the GI50 is inactive: > 100 µM.
In the case of `CC(C)CC(NC(=O)C(CI)Cc1ccccc1)C(=O)Nc1ccccc1` (stereo not given), the GI50 was inactive: > 100 µM.
For `CCCCCCCCCCCCCCCCC(=O)NCC(=O)NCC(=O)NC(Cc1ccccc1)C(=O)Oc1ccc([N+](=O)[O-])cc1` (stereo not given) the value was inactive: 40.9 µM.
On to `O=C1CC2(CCC(O)(c3ccc(Cl)cc3)C(C(=O)c3ccc(Cl)cc3)C2)C(=O)c2ccccc2N1` (stereo not given), for which the GI50 was inactive: 16.8 µM.
For `COC1OC(C(=O)O)C2OC(C)(C)OC12` (stereo not given) the value was inactive: > 100 µM; for `N#Cc1ccc(C(C2C(=O)NC(=O)NC2=O)C2C(=O)NC(=O)NC2=O)cc1`, inactive: > 100 µM; for `COc1ccccc1NC(=O)CC(=O)N/N=C/c1ccc(N(CCC#N)S(=O)(=O)c2ccccc2)cc1`, inactive: > 100 µM.
Regarding `CC(C)=C[C@H]1C[C@H](C)[C@H]2CC[C@H](C)c3c2c1c(C)c1ncoc31`, the GI50 was inactive: 21.3 µM.
As to `COc1ccc(CN(Cc2ccc(OC)cc2)C(=O)CC2(O)C=CCC2)cc1` (stereo not given), the GI50 is inactive: > 100 µM.
Next, `COc1ccc2nc3cc(Cl)ccc3c(NCCCNCc3cc(OC)c(OC)c(OC)c3)c2c1`: inactive: 1.52 µM.
For `Oc1ccccc1/C=N/c1ccccc1/N=C/c1ccccc1O` the value was inactive: 78.7 µM.
As to `Cc1cc(Cl)ccc1NC(=O)C(=O)Cc1occc(=O)c1O`, the GI50 is inactive: > 100 µM.
Regarding `COc1cccc(-c2cccc(SC)n2)n1`, the GI50 was inactive: 59.2 µM.
Take `COC1=C(OC)C(=O)C(Cc2c(-c3ccccc3)nc3sc(Cl)cn23)=C(C)C1=O`: the GI50 is inactive: 19.6 µM.
For `O=C1c2ccccc2C2=Cc3ccccc3C(O)N12` (stereo not given) the value was inactive: > 100 µM; for `COC(=O)Oc1nn(C(=O)OC)c(=O)c2ccccc12`, inactive: > 100 µM; for `COC(=O)CCC(=O)NC1=C(Nc2ccc(OC)cc2)C(=O)c2ccccc2C1=O`, inactive: 16.5 µM.
For `CCN(CC)CCn1c2cc3c(cc2c(=O)c2cccnc21)OCO3` the value was inactive: 5.21 µM.
Take `CCCCOP(=O)(OCCCC)/C(C#N)=C/c1ccc(C)o1`: the GI50 was inactive: 56 µM.
`CCCC(=O)Nc1cn(COC)c(C(=O)N2C[C@@H]3C[C@]34C2=CC(=O)c2[nH]cc(C)c24)n1`: the GI50 is inactive: 9.4 µM.
Regarding `O=Cc1cn(S(=O)(=O)c2ccccc2)c2ccccc12`, the GI50 was inactive: 59.2 µM.
On to `O=S1(=O)NC2CCC3NS(=O)(=O)NC4CCC(N1)N4S(=O)(=O)N23` (stereo not given), for which the GI50 is inactive: > 100 µM.
On to `COc1ccc(NCC(=O)Nn2c(C)nc3ccc(S(=O)(=O)Nc4ccc(OC)cc4)cc3c2=O)cc1`, for which the GI50 is inactive: > 100 µM.
For `CCC1=CC2Cc3nc4cc(Cl)ccc4c(N)c3C(C1)C2` (stereo not given) the value was inactive: 5.74 µM; for `Nn1c(-c2ccccc2)n[nH]c1=O`, inactive: > 100 µM.
Next, `O=C(Nc1nc2ncn(CCO)c2c(=S)[nH]1)c1ccccc1`: inactive: > 100 µM; `CC(=O)N1C(=O)/C(=C\C(=O)c2ccc([N+](=O)[O-])cc2)c2ccccc21`: inactive: > 100 µM.
Consider `CC(=O)[C@@H]1C/C(=C\OCc2ccccc2)O[C@H]1C`, for which the GI50 is inactive: > 100 µM.
`Clc1ccc(-c2cc(-c3cc4cc(Br)ccc4nc3Cl)on2)cc1`: the GI50 is inactive: 13.5 µM.
For the compound `O=P(OCc1ccccc1)(OCc1ccccc1)C(O)/C=C/c1ccccc1` (stereo not given), the GI50 is inactive: 26.1 µM.
Next, `CN1CCC23c4c5ccc(O)c4OC2c2[nH]c4ccccc4c2CC3(O)C1C5` (stereo not given): inactive: 37.7 µM.
Next, `C(=C\N1CCCCC1)/c1nnnn1-c1ccccc1`: inactive: 38.9 µM; `CC(=O)OCC1OC(n2c3c(cc(C#N)c2=S)CCCCCC3)C(OC(C)=O)C(OC(C)=O)C1OC(C)=O` (stereo not given): inactive: > 100 µM; `CN(C)CCn1c(=O)oc2cc(C(=O)CN3CCOCC3)ccc21`: inactive: > 100 µM.
Next, `CC[C@@]1(C[C@H]2C[C@@]3(C(=O)OC)c4[nH]c5ccccc5c4CCN3C2=O)COC2(CCCCC2)O1`: inactive: 53.8 µM.
For the compound `O=C(O)Cc1ccc(Nc2nc3ccccc3nc2C(=O)O)cc1`, the GI50 was inactive: > 100 µM.
For `O=C(C1OC1c1ccc(O)cc1)C12CC3CC(CC(C3)C1)C2` (stereo not given) the value was inactive: > 100 µM; for `Cn1c(=O)oc2cc(C(=O)CN3CCN(Cc4ccc5c(c4)OCO5)CC3)c(Cl)cc21`, inactive: > 100 µM.
For `CC(=O)N/C(=C\c1ccc(/C=C(\NC(C)=O)C2=NC3C(=O)c4ccccc4C(=O)C3N2)cc1)C1=NC2C(=O)c3ccccc3C(=O)C2N1` (stereo not given) the value was inactive: 12.4 µM; for `O=C(O)CCC(O)=C1S(=O)(=O)OCCOS1(=O)=O`, inactive: > 100 µM; for `O=S(=O)(O)c1ccc2c(/N=N/c3ccccc3Cl)c(O)ccc2c1`, inactive: > 100 µM.
With `COC1=CC(C2c3cc4c(cc3[C@@H](Nc3ccc(F)cc3)C3COC(=O)[C@H]23)OCO4)=CC(=O)C1=O` (stereo not given in full), the GI50 is inactive: 31.7 µM.
`CC1(C)C(OC(=O)c2ccccc2)C[C@]23CCC[C@](C)(C[C@@H](O)C12)C3` (stereo not given in full): the GI50 was inactive: 17.4 µM.
Next, `SC1=Nc2ccccc2-c2nc(-c3ccccc3)cc(-c3ccc(Br)cc3)c2C1`: active: 0.804 µM; `Cc1ccc(S(=O)(=O)NC(=O)Nc2c(S(N)(=O)=O)cc(S(N)(=O)=O)c(Cl)c2Cl)cc1`: inactive: > 100 µM.
Next, `COc1cc2c(c(OC)c1OC)-c1ccc(SC)c(=O)cc1[C@@H](NC(=O)C(F)(F)F)CC2`: active: 0.0356 µM.
As for `CCN(CC)CCCNc1ncc(C)c2c1c1ccc3c(O)cccc3c1n2C`, the GI50 was inactive: 1.44 µM.
For `Cc1occc1/C(S)=N\c1ccc(Cl)c(C(=O)OCC2CC2)c1` the value was inactive: > 100 µM.
